About 1,800 (2.5%) of roughly 71,000 compounds were called active. Inconclusive means that the source gave no clear call. Such entries were picked first, then a sample of the others. Calls come from the whole dose curve; as a rule, active = well fitted activation curve with a large enough effect in the signal ratio, with a control signal flat (not every such curve was filed as active); inconclusive = small, poorly fitted or top-dose-only effect, or effect the other way, or a change in a side signal; inactive = flat fitted curve, though single readings scatter; the % refers to the signal ratio. A potency beside an inconclusive call is a rough fit, not a confirmed value.
Assay: Cell signaling CRE-BLA (Fsk stim); for activity change, negative = inhibition: % of control where 0% means no effect
Settings: CHO CRE-bla reporter (cAMP response element driving beta-lactamase), forskolin EC10, beta-lactamase ratio; activity change, negative = inhibition: at 38.2 µM (top of the series) unless noted
Outline: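 CRE-bla CHO reporter cells treated with compound titration plus EC10 NKH 477 (water-soluble forskolin), incubated 3 h at 37 °C; CCF4 loading 2 h at room temperature, 460/530 nm emission ratio read, AC50 values derived for positive or negative modulators.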
Potency is the fitted concentration of half-maximal effect; tags give direction and shape of the fitted curve.

Compound	activity change, negative = inhibition	Potency
CN(C(=O)CSc1nc(-c2ccc(F)cc2)cs1)C1CCS(=O)(=O)C1 (configuration not stated)	inconclusive: -2.13%	–
O=C(NCC(c1ccc(F)cc1)N1CCOCC1)c1ccc(Br)o1 (configuration not stated)	inactive: -8.87%	–
O=C(Cn1cnc2c(cnn2-c2ccccc2)c1=O)NCc1ccccc1	inconclusive: -26.3%	–
COc1ccc(-n2nnnc2-c2cccc(OC)c2)cc1	–	inconclusive: 15.8 µM [rising, single point]
CCOC(=O)CSc1nnc(CNC(=O)c2cccs2)n1-c1ccccc1	inconclusive: 20.1%	–
O=c1cnc2cnc(Oc3cccc(Cl)c3)nc2n1C1CC1	–	inconclusive: 15.8 µM [rising, single point]
O=C(Nc1ccc2nc(-c3cccs3)[nH]c2c1)c1ccco1	–	active: 5.01 µM
CCNc1ncc2nc(-c3cn(C)c4ccccc34)c(=O)n(C[C@H]3CCCO3)c2n1	–	active: 0.794 µM
Cn1c(=O)cc(OCCCC(=O)Nc2ccc3c(c2)OCCO3)c2ccccc21	–	inconclusive: 25.1 µM [rising, single point]
N=C1C(c2nc3ccccc3c(=O)[nH]2)=C(O)CN1CCc1ccccc1	–	inconclusive: 12.6 µM [rising, partial curve]
CCc1ccccc1N1CCN(S(=O)(=O)c2ccc(F)c(C)c2)CC1	–	inconclusive: 3.98 µM [rising, full curve]
CCS(=O)(=O)c1ccc(O)c(NC(=O)c2cc(OC)c(OC)c(OC)c2)c1	–	inconclusive: 7.94 µM [rising, partial curve]
Cc1cc(C)nc(Nc2ccc(N3CCCC3)cc2)n1	inactive: -6.06%	–
COC(=O)c1c(NC(=O)Cc2cccs2)sc2c1CCCC2	–	inconclusive: 12.6 µM [rising, partial curve]
COc1cccc(-n2ccnc2SCC(=O)Nc2cc(OC)ccc2OC)c1	–	inconclusive: 10 µM [rising, partial curve]
CCCc1cc(=O)[nH]c(SCC(=O)Nc2cc3c(cc2C(C)=O)OCO3)n1	–	inconclusive: 12.6 µM [rising, single point]
COc1cccc(-n2nnc3c(=O)n(CC(=O)OCc4ccccc4)cnc32)c1	inconclusive: -1.74%	–
N#Cc1ccccc1-c1ccc2ncnc(N3CCNCC3)c2c1	–	inconclusive: 10 µM [rising, partial curve]
Brc1ccc([C@H]2CN3CCSC3=N2)cc1	inactive: 4.46%	–
CCn1c(COc2ccccc2C)nnc1SCC(=O)CC(=O)Nc1ccccc1	inconclusive: -13.8%	–
C=CC[C@H](N)C(=O)O	inactive: -2.16%	–

Compound	activity change, negative = inhibition	Potency
Cc1ccnc(NS(=O)(=O)c2ccc(NC(=O)C3CCCNC3=O)cc2)n1 (configuration not stated)	inconclusive: 6.17%	–
c1cncc(-c2nnc3n2N=C(c2cccs2)CS3)c1	–	inconclusive: 25.1 µM [rising, single point]
O=c1c2ccccc2cnn1-c1nc2ccccc2s1	inconclusive: 4.93%	–
O=C1OC2(c3cc(Br)c(O)c(Br)c3Oc3c2cc(Br)c(O)c3Br)c2c(Cl)c(Cl)c(Cl)c(Cl)c21	inconclusive: -22.5%	–
CCn1c(/C(C#N)=C(\O)CCc2ccccc2)nc2ccccc21	inconclusive: -15.7%	–
CCOC(=O)c1[nH]c(COC(=O)CCCOc2ccccc2)c(C(=O)OCC)c1C	–	active: 12.6 µM
COC(=O)c1ccc(OCCn2cnc3ccccc3c2=O)cc1	–	inconclusive: 10 µM [rising, partial curve]
Cc1csc(NC(=O)c2ccc(C)c(S(=O)(=O)N3CCCCC3)c2)n1	inconclusive: -6.42%	–
NC(=O)c1c(NC(=O)C2CCCO2)sc2c1CCC2 (configuration not stated)	–	inconclusive: 10 µM [rising, single point]
CCOc1ccccc1NC(=O)CCSc1nc2n[nH]c(C)c2c(=N)n1-c1ccccc1Cl	–	active: 1.58 µM
Cc1cc(C)nc(N2CCC(CNC(=O)CCc3ccccc3)CC2)n1	inactive: 8.61%	–
Cn1c(=O)c2c(nc(OCc3cccnc3)n2Cc2c(F)cccc2Cl)n(C)c1=O	–	inconclusive: 1.58 µM [rising, full curve, poor fit]
Cc1noc(C)c1COc1ccc(C(=O)NCc2ccccn2)cc1	inactive: -8.5%	–
CCOC(=O)c1cnn(CC2CCCCC2)c1N	inactive: 18.3%	–
CCCCOc1ccc(C(=O)Oc2ccc(C)nc2)cc1	inconclusive: 9.11%	–
O=C(c1ccccc1-c1nc(-c2ccc(F)cc2)no1)N1CCCC1	inactive: 13.7%	–
N#Cc1nc(Cc2ccccc2)oc1N1CCC(C(N)=O)CC1	–	inconclusive: 20 µM [rising, single point]
c1ccc2c3c([nH]c2c1)[C@@H]1[C@H]2CC[C@H]([C@H]4CCCN[C@H]42)N1CC3	inactive: -6.67% [at 17.1 µM]	–
O=C(CCS(=O)(=O)c1ccc(Br)cc1)N1CCN(c2ccccc2)CC1	–	inconclusive: 0.631 µM [rising, full curve, poor fit]
CCOc1ccc(C(=O)Nc2ccc(N3CCN(C)CC3)cc2)cc1Br	inactive: 4.02%	–
CN(CC(=O)Nc1ccc(F)c(F)c1F)c1cnccn1	inconclusive: -40.2%	–

Compound	activity change, negative = inhibition	Potency
O=C(c1cc2nc3c(c(C(F)(F)F)n2n1)CCc1ccccc1-3)N1CCN2CCCC2C1 (configuration not stated)	–	inconclusive: 7.94 µM [rising, partial curve]
CC(C)C(=O)Nc1c(C(=O)c2ccc(F)cc2)oc2ccccc12	–	inconclusive: 7.94 µM [rising, partial curve]
O=C(O)c1ccccc1Cl	inactive: -3.7%	–
CCOC(=O)c1cc2c(=O)n3ccccc3nc2n(CCCOC)c1=NC(=O)c1cccnc1	–	inconclusive: 12.6 µM [rising, partial curve]
Cc1ccc(-n2c(Cc3cccn3C)nnc2SCC(=O)Nc2cc(C)on2)cc1	inactive: -9.15%	–
COc1ccc(OC)c(NC(=O)CCN2CCN(c3ccccc3F)CC2)c1	inconclusive: -4.55% [at 7.6 µM]	–
COc1cc2cc(CN(Cc3nnnn3C3CCCC3)C3CCCC3)c(=O)[nH]c2cc1OC	inconclusive: -1.74%	–
CCOC(=O)c1c(N)c(C#N)cn1-c1ccccc1	–	inconclusive: 12.6 µM [rising, partial curve]
Cc1nn(Cc2ccccc2Cl)c2sc(C(=O)OC3CCCC3=O)cc12 (configuration not stated)	–	inconclusive: 6.31 µM [rising, partial curve]
O=C1CCC(=O)N1c1ccc(CSc2nnnn2C2CCCCC2)cc1	inactive: 3.33%	–
COc1ccc(C)cc1NC(=O)CNC(=O)Cn1ccc2ccccc2c1=O	inconclusive: 5.4%	–
CCn1c(SCC(=O)c2[nH]c(C)c(C(C)=O)c2C)nnc1-c1ccncc1	inconclusive: 5.96%	–
N#CC1=C(N)SC(N)=C(C#N)C1c1ccnc2ccccc12	inconclusive: 4.15%	–
CCN(C(=O)c1cnc(N2CCN(c3ncccn3)CC2)c2ccccc12)c1cccc(Cl)c1	inconclusive: -6.61%	–
CCCCN1C(=O)C2ON(c3ccccc3C)C(c3ccco3)C2C1=O (configuration not stated)	inconclusive: 21.3% [at 7.6 µM]	–
O=C(Nc1ccccc1Cl)c1c(F)c(F)c(F)c(F)c1F	inconclusive: 9.25%	–
O=C(NCCc1ccccc1)c1c(O)c2cccc3c2n(c1=O)CC3	inactive: 3.91%	–
CCOCN(C(=O)Cn1c(CO)nc2ccccc21)c1c(C)cccc1CC	inconclusive: -5.54% [at 7.6 µM]	–
Fc1ccc(-c2nnc3sc(-c4ccc5c(c4)OCO5)nn23)cc1	–	inconclusive: 5.01 µM [rising, partial curve]
N#C/C(C(=O)N1CCOCC1)=c1\s/c(=C/c2ccncc2)c(=O)n1-c1ccccc1	–	inconclusive: 12.6 µM [rising, single point]
COc1ccccc1-c1cc(C(F)(F)F)nc(NCc2ccco2)n1	inactive: 15.4%	–

Compound	activity change, negative = inhibition	Potency
N#CC1=C(N)SC(N)=C(C#N)C1c1ccoc1	inactive: -2.49%	–
O=c1c2[nH]c3ccc(Br)cc3c2ncn1CCCn1ccnc1	–	active: 10 µM
CC(=O)Nc1ccc(S(=O)(=O)N2CCN(S(=O)(=O)N3CCCCCC3)CC2)cc1	inactive: 0.0296%	–
CCCCCCCCCCCCCCCC(=O)NCCO	inactive	–
Cc1ccc(CNS(=O)(=O)c2ccc(C(C)(C)C)cc2)n1C	inconclusive: 17.6%	–
CCOC(=O)c1c(NC(=O)CN2CCOCC2)sc2c1CCCC2=O	–	inconclusive: 10 µM [rising, partial curve]
CN1CCN(C2=Nc3cc(Cl)ccc3Nc3ccccc32)CC1	inconclusive: -26.2%	–
N#Cc1c(N)nc(SCc2ccccc2)c(C#N)c1-c1ccco1	–	active: 3.16 µM
O=C(CSc1nc2ccccc2[nH]1)Nc1ccccc1N1CCOCC1	–	inconclusive: 10 µM [rising, partial curve]
CCC(=O)N/C(N)=N/c1nc(C)c2cc(OC)ccc2n1	inactive: 8.36%	–
Cc1nc(N)sc1-c1csc(Nc2ccccn2)n1	inactive: -1.79%	–
CCCNc1nc2c(c(=O)[nH]c(=O)n2C)n1CCc1ccccc1	–	inconclusive: 12.6 µM [rising, single point]
CCCc1nc(-c2ccccc2O)n(-c2ccccc2)n1	inconclusive: 22.5%	–
CC(=O)N1c2ccccc2C(=O)C1N1CCCCC1 (configuration not stated)	inactive: -4.67%	–
CCOC(=O)CC(=O)CSc1ncnc2c1oc1ccccc12	–	inconclusive: 10 µM [rising, partial curve]
COc1ccc(C)cc1NC(=O)CN1CCN(S(=O)(=O)c2ccc(Cl)cc2)CC1	–	inconclusive: 2.51 µM [rising, partial curve]
CN(C)C(=O)c1ccc(-c2ccc3ncnc(Nc4ccccc4)c3c2)cc1	inconclusive: 12.7%	–
CCCCNC(=O)CC1N=C2c3ccccc3N=C(SCC(=O)Nc3cccc(C)c3)N2C1=O (configuration not stated)	inactive: -16.4%	–
COc1cc(C(=O)NCC(=O)OCC(=O)c2ccc[nH]2)cc(OC)c1OC	–	inconclusive: 12.6 µM [rising, single point]
